What was measured:
Test in all cases: cell-based or functional assay
human GLP-1R [1] = target: T1, human GLP-1R (human, UniProt P43220)
GCGR [2] = target: GCGR
human GLP-1R [3] = target: T1, human GLP-1R; remark: listed apart in the source
β-klotho (KLB) = target: β-klotho (KLB)
GCGR [4] = target: GCGR; remark: listed apart in the source

Binder | EC50 (nM) GLP-1R (human GLP-1R [1]) [nM] | EC50 (nM) GCGR (GCGR [2]) [nM] | GLP-1 R agonist activity (EC50, nM) (human GLP-1R [3]) [nM] | FGF21 activity (EC50, nM) (β-klotho (KLB)) [nM] | GCGR agonist activity (EC50, nM) (GCGR [4]) [nM]
A232L1F6 (Fc fusion) HSQGTFTSDYSKYLDEQAAQDFVQWLLAGGPSSGAPPPSGGGGSGGGGSGGGGSA[letters of human IgG4 Fc with S228P N297A (EU numbers) omitted] | 2.79 | 1.45 |  |  | 
A382L1F6 (Fc fusion) HSQGTFTSDYSKYLDSQAAQDFVQWLLDGGPSSGAPPPSGGGGSGGGGSGGGGSA[letters of human IgG4 Fc with S228P N297A (EU numbers) omitted] | 1.74 | 1.67 |  |  | 
A395L1F6 (Fc fusion) HSQGTFTSDYSKYLDEEAAQDFVQWLLAGGPSSGAPPPSGGGGSGGGGSGGGGSA[letters of human IgG4 Fc with S228P N297A (EU numbers) omitted] | 1.74 | 1.23 |  |  | 
A352L1F6 (Fc fusion) HSQGTFTSDYSKYLDSQAAQDFVQWLLAGGPSSGAPPPSGGGGSGGGGSGGGGSA[letters of human IgG4 Fc with S228P N297A (EU numbers) omitted] | 1.7 | 1.44 |  |  | 
A402L1F6 (Fc fusion) HSQGTFTSDYSKYLDEEAAQDFVQWLLDGGPSSGAPPPSGGGGSGGGGSGGGGSA[letters of human IgG4 Fc with S228P N297A (EU numbers) omitted] | 1.85 | 1.32 |  |  | 
A382L1F9L5M2 (Fc fusion) HSQGTFTSDYSKYLDSQAAQDFVQWLLDGGPSSGAPPPSGGGGSGGGGSGGGGSA[letters of human IgG1 Fc with changes omitted]GGGGAGGGGAGGGGAHPIPDSSPLLQFGGQVRQRYLYTDDAQQTEAHLEIREDGTVGGAADQSPESLLQLKALKPGVIQILGVKTSRFLCQRPDGALYGSLHFDPEACSFRERLLEDGYNVYQSEAHGLPLHCPGNKSPHRDPAPRGPCRFLPLPGLPPALPEPPGILAPQPPDVGSSDPLSMVGGSQGRSPSYES |  |  | 1.26 | 0.77 | 1.16
